The text below walks through data of paper PMC4336329 (PLoS ONE, 2015).

About 2,200 (0.71%) of roughly 310,000 compounds showed an effect of 50% or more. The effect is printed as a negative number. Some of the results follow.

human ether-à-go-go-related gene (hERG) potassium channel, sequence (Q12809 whole entry, looked up): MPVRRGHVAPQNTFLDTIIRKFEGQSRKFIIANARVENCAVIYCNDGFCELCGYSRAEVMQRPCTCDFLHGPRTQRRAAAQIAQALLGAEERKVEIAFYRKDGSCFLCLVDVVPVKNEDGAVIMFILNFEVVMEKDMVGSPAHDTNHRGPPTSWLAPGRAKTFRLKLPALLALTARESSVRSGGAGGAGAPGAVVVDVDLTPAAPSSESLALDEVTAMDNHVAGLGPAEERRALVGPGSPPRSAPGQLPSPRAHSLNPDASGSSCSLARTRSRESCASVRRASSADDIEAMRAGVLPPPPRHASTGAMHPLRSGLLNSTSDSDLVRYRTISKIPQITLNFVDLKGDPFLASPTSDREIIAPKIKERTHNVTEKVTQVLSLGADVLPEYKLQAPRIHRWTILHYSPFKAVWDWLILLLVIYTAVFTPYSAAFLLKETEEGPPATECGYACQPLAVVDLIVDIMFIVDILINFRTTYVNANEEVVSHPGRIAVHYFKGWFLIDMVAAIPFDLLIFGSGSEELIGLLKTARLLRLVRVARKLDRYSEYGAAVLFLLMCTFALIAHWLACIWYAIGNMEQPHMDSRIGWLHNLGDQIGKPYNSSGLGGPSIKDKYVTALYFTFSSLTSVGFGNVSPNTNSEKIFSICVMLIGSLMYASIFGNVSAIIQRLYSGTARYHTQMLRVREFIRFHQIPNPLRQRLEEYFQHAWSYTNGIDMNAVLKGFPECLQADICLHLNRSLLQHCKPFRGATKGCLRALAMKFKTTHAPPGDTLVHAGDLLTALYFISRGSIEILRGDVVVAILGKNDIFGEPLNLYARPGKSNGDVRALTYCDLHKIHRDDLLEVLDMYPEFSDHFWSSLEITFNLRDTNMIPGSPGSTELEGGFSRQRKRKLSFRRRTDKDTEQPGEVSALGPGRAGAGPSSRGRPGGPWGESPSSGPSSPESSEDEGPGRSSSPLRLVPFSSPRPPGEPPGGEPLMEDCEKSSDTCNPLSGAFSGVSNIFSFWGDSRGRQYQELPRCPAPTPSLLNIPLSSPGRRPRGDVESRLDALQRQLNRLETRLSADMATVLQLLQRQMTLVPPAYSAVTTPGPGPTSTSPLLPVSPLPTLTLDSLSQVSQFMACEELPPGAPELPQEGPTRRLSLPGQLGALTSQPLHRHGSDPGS

The experiment addresses human ether-à-go-go-related gene (hERG) potassium channel (human, UniProt Q12809). Briefly: primary screen, population patch clamp on CHO cells stably expressing hERG.
As for `COc1ccc(NC(=O)C(=O)NNC(=O)c2cccs2)c(OC)c1`, the “hERG current change (%, negative = inhibition) at 1uM” value amounted to 5.07%.

Consider `CC(C)CNC(=O)CSc1nc2scc(-c3ccccc3)c2c(=O)[nH]1`, for which the “hERG current change (%, negative = inhibition) at 1uM” value came out at 2.46%. The value for `CCOC(=O)/C(C#N)=C/c1c(N2CCN(C)CC2)nc2ccccn2c1=O` was 10.3%. The value for `CCn1c(Cc2ccccc2)nnc1SCC(=O)NC1CC1` was 17.3%; that for `O=C(Cn1cc2c(n1)CCCC2)N1CCc2ccccc21` was 0.242%; that for `Cc1nc(Nc2ccc(Cl)cc2Cl)sc1C(=O)Nc1ccccc1` was 7.93%. Regarding `CS(=O)(=O)c1ccc(Cl)c(NC(=O)C2CC(=O)N(Cc3ccccc3)C2)c1` (stereo not drawn), the “hERG current change (%, negative = inhibition) at 1uM” value is on record as 1.34%.

For the compound `O=C(OCCN1C(=O)c2ccccc2C1=O)C1CC(O)CN1S(=O)(=O)c1ccc(Cl)cc1` (stereo not drawn), the “hERG current change (%, negative = inhibition) at 1uM” value is 7.01%. Consider `CCOC(=O)C1=C(CSc2nc3ccccc3s2)NC(=O)NC1c1ccc(OC)cc1` (stereo not drawn), for which the “hERG current change (%, negative = inhibition) at 1uM” value was determined as 14.3%.

Take `O=C1CCCN1c1ccc(S(=O)(=O)N2CCN(c3ccccn3)CC2)cc1`: the “hERG current change (%, negative = inhibition) at 1uM” value was 14.8%.

For the compound `Cc1ccc(-c2nn(-c3ccccc3)cc2CN(Cc2ccccc2)C(=O)c2ccco2)o1`, the “hERG current change (%, negative = inhibition) at 1uM” value amounted to 0.914%. Next, `COc1cccc(/C=N/n2cnc3c(cnn3-c3ccccc3)c2=O)c1`: 10.9%; `Cc1cc(/C=N/N2CCN(C)CC2)c(C)n1-c1ccccc1F`: 8.21%.

`C=CCN1C(=O)C(O)(CC(=O)c2ccc(Cl)cc2)c2ccccc21` (stereo not drawn): the “hERG current change (%, negative = inhibition) at 1uM” value came out at 15.5%. Next, `CCOC(=O)c1ccc(NC(=O)N2CCOCC2)cc1`: 11.2%. The value for `CCOC(=O)C(=O)NNc1ccccc1C` was 1.85%; that for `COc1ccccc1CN1CCN(C(c2ccccc2)c2ccccc2)CC1.O=C(O)C(=O)O` was -13.6%. Next, `CC(OC(=O)c1ccc(Cl)nc1)C(=O)NC(C)(C)C` (stereo not drawn): 12.2%; `O=C(CN(C(=O)c1ccccc1Cl)N1C(=O)C2C3C=CC(C3)C2C1=O)c1cccs1` (stereo not drawn): 6.38%; `c1ccc(OCc2nn3c(Cn4nnc5ccccc54)nnc3s2)cc1`: -7.64%. For the compound `O=C(O)C1C2CCC(O2)C1C(=O)NCc1ccccc1Br` (stereo not drawn), the “hERG current change (%, negative = inhibition) at 1uM” value amounted to 17.4%.

Regarding `CCOc1ccccc1N1C(=O)CC(Sc2nccc(C)n2)C1=O` (stereo not drawn), the “hERG current change (%, negative = inhibition) at 1uM” value amounted to 12.3%.

In the case of `COc1ccc(C2Nc3ccccc3C(=O)N2Cc2ccco2)cc1COc1ccc(NC(C)=O)cc1` (stereo not drawn), the “hERG current change (%, negative = inhibition) at 1uM” value is reported as 9.08%.

Regarding `COc1cc(SC#N)ccc1N=Cc1c(C)[nH]n(-c2ccc(C)c(C)c2)c1=O`, the “hERG current change (%, negative = inhibition) at 1uM” value was found to be 1.25%.
